These are literature values, as cited in paper PMC11006913.

Conditions in all cases: PBM; conditions not shown; double strand, one strand shown; scale: upbm affinity estimate (log intensity, higher = more binding, comparable within an allelic series)
The target of data set [1] is PITX2 L100Q (Homo sapiens) (UniProt Q99697).
Data set [2] deals with PITX2 R108H (Homo sapiens) (UniProt Q99697).
Data set [3] has as its target PITX2 R130W (Homo sapiens) (UniProt Q99697).
Data set [4] has as its target PITX2 T114P (Homo sapiens) (UniProt Q99697).

The other results are listed elsewhere or left out.

In the case of ATAATCCA [8-mer ATAATCCA], the binding signal in data set [1] is 11.4; in data set [2] it was 9.57; in data set [3], 8.82; in data set [4], 9.9.

For the sequence CAGACCTC [8-mer CAGACCTC], the binding signal was 8.39 in data set [1], 8.15 in data set [2], 8.04 in data set [3] and 8.2 in data set [4].

For the sequence GAGGTTGC [8-mer GAGGTTGC], the binding signal in data set [1] was 8.04; in data set [2], 8.04; in data set [3], 8.05; in data set [4] it was 8.08.

As to AGGGATCA [8-mer AGGGATCA], the binding signal in data set [1] is 10.4; in data set [2], 8.76; in data set [3], 8.44; in data set [4], 9.02.

Regarding ACCCGGCG [8-mer ACCCGGCG], the binding signal in data set [1] is 8.12; in data set [2], 8.02; in data set [3] it was 7.85; in data set [4] it was 8.05.

As for CGCCGGGA [8-mer CGCCGGGA], the binding signal in data set [1] was 8.45; in data set [2], 8; in data set [3] it was 7.87; in data set [4] it was 8.05.

Turning to AGGCTTAA [8-mer AGGCTTAA], the binding signal was 10.9 in data set [1], 9.08 in data set [2], 8.44 in data set [3] and 9.36 in data set [4].

Turning to CCTCCTCG [8-mer CCTCCTCG], the binding signal was 8.34 in data set [1], 8.04 in data set [2], 7.98 in data set [3] and 8.1 in data set [4].

Take ACCGGGGC [8-mer ACCGGGGC]: the binding signal in data set [1] is 8.16; in data set [2], 7.87; in data set [3], 7.71; in data set [4] it was 7.9.

Take AAGGATTA [8-mer AAGGATTA]: the binding signal was 11.5 in data set [1], 9.63 in data set [2], 8.69 in data set [3] and 10.1 in data set [4].

Regarding CGCCACCC [8-mer CGCCACCC], the binding signal in data set [1] was 8.11; in data set [2], 8.14; in data set [3] it was 7.94; in data set [4] it was 8.14.

With AGGGGGTC [8-mer AGGGGGTC], the binding signal in data set [1] is 8.21; in data set [2], 8.17; in data set [3], 8; in data set [4] it was 8.16.

Take GAACCGCC [8-mer GAACCGCC]: the binding signal in data set [1] is 8.28; in data set [2], 8.06; in data set [3] it was 8.02; in data set [4], 8.08.

Regarding CGGCCCCC [8-mer CGGCCCCC], the binding signal in data set [1] was 7.93; in data set [2] it was 8.07; in data set [3], 7.73; in data set [4], 8.02.

Take GATTAACA [8-mer GATTAACA]: the binding signal in data set [1] is 10.9; in data set [2], 9.22; in data set [3] it was 8.72; in data set [4] it was 9.34.

On to GCCGGCCA [8-mer GCCGGCCA], for which the binding signal is 8.36 in data set [1], 8.11 in data set [2], 8 in data set [3] and 8.18 in data set [4].

Consider AGGATTAG [8-mer AGGATTAG], for which the binding signal is 11.6 in data set [1], 9.65 in data set [2], 8.54 in data set [3] and 10.2 in data set [4].

Turning to GGGATTTA [8-mer GGGATTTA], the binding signal was 10.8 in data set [1], 9.09 in data set [2], 8.46 in data set [3] and 9.52 in data set [4].

Consider GCGTCGCC [8-mer GCGTCGCC], for which the binding signal is 8.33 in data set [1], 8.06 in data set [2], 8 in data set [3] and 8.07 in data set [4].

Consider CAGATTAG [8-mer CAGATTAG], for which the binding signal is 10.8 in data set [1], 9.09 in data set [2], 8.51 in data set [3] and 9.2 in data set [4].

In the case of CCGGCCCC [8-mer CCGGCCCC], the binding signal in data set [1] was 8.27; in data set [2] it was 7.93; in data set [3], 7.64; in data set [4] it was 7.91.

Consider AGAATTTA [8-mer AGAATTTA], for which the binding signal in data set [1] is 9.51; in data set [2], 8.8; in data set [3], 8.55; in data set [4] it was 8.74.

On to CGGTTTAG [8-mer CGGTTTAG], for which the binding signal is 9.63 in data set [1], 8.57 in data set [2], 8.39 in data set [3] and 8.56 in data set [4].

In the case of CCGTCGCG [8-mer CCGTCGCG], the binding signal in data set [1] is 8.34; in data set [2], 8.21; in data set [3], 8.03; in data set [4] it was 8.22.

Regarding ATTAAGCC [8-mer ATTAAGCC], the binding signal was 11.1 in data set [1], 9.22 in data set [2], 8.52 in data set [3] and 9.6 in data set [4].

Consider GGGATTAC [8-mer GGGATTAC], for which the binding signal is 11.3 in data set [1], 9.28 in data set [2], 8.37 in data set [3] and 9.88 in data set [4].

With TCGCTTAA [8-mer TCGCTTAA], the binding signal in data set [1] is 9.67; in data set [2], 8.75; in data set [3], 8.53; in data set [4], 8.74.

As for AATAATCC [8-mer AATAATCC], the binding signal in data set [1] was 11.3; in data set [2], 9.59; in data set [3], 8.74; in data set [4] it was 9.9.

Take AGATTATA [8-mer AGATTATA]: the binding signal in data set [1] was 10.9; in data set [2], 9.38; in data set [3] it was 8.73; in data set [4] it was 9.54.

In the case of CCTGGTAG [8-mer CCTGGTAG], the binding signal in data set [1] was 8.27; in data set [2], 8.22; in data set [3], 8.1; in data set [4], 8.17.

Take CAAATACC [8-mer CAAATACC]: the binding signal in data set [1] is 9.5; in data set [2], 8.64; in data set [3], 8.57; in data set [4], 8.69.

Turning to ATAATCTA [8-mer ATAATCTA], the binding signal in data set [1] was 10.8; in data set [2], 9.34; in data set [3] it was 8.92; in data set [4], 9.44.

Regarding CCGCGGCC [8-mer CCGCGGCC], the binding signal in data set [1] was 7.93; in data set [2], 8; in data set [3], 7.78; in data set [4] it was 7.96.

With CCCATGCC [8-mer CCCATGCC], the binding signal was 7.95 in data set [1], 8.03 in data set [2], 7.97 in data set [3] and 8.09 in data set [4].

Take CTATAATC [8-mer CTATAATC]: the binding signal in data set [1] was 10.6; in data set [2], 9.3; in data set [3], 8.78; in data set [4], 9.45.

Turning to CGGGCGGC [8-mer CGGGCGGC], the binding signal is 8.24 in data set [1], 7.86 in data set [2], 7.67 in data set [3] and 7.96 in data set [4].

Consider GAACTGGC [8-mer GAACTGGC], for which the binding signal is 8.12 in data set [1], 8.07 in data set [2], 8.05 in data set [3] and 8.1 in data set [4].

Take ATAATCCG [8-mer ATAATCCG]: the binding signal was 11.4 in data set [1], 9.67 in data set [2], 8.59 in data set [3] and 9.97 in data set [4].

For the sequence CGGGGTCC [8-mer CGGGGTCC], the binding signal in data set [1] was 7.99; in data set [2] it was 8.09; in data set [3] it was 7.97; in data set [4], 8.1.

On to GCTGCGCC [8-mer GCTGCGCC], for which the binding signal is 8.02 in data set [1], 7.87 in data set [2], 7.93 in data set [3] and 7.93 in data set [4].

For the sequence CGCAGCCC [8-mer CGCAGCCC], the binding signal in data set [1] was 8.1; in data set [2], 7.99; in data set [3], 7.95; in data set [4], 8.05.

Turning to GTCGCCGA [8-mer GTCGCCGA], the binding signal in data set [1] was 8.11; in data set [2], 8.11; in data set [3] it was 8.12; in data set [4] it was 8.15.

With GTGGCCAC [8-mer GTGGCCAC], the binding signal was 8.38 in data set [1], 8.15 in data set [2], 8 in data set [3] and 8.23 in data set [4].

With CCGGTTGC [8-mer CCGGTTGC], the binding signal was 8.38 in data set [1], 8.12 in data set [2], 8.06 in data set [3] and 8.26 in data set [4].

CGCCCGAC [8-mer CGCCCGAC]: the binding signal is 8.18 in data set [1], 8.1 in data set [2], 7.98 in data set [3] and 8.11 in data set [4].

As for ATTTAACC [8-mer ATTTAACC], the binding signal was 9.71 in data set [1], 8.7 in data set [2], 8.5 in data set [3] and 8.79 in data set [4].

With AGTTAATC [8-mer AGTTAATC], the binding signal in data set [1] is 11; in data set [2], 9.34; in data set [3] it was 8.63; in data set [4] it was 9.55.

On to CGTTAATC [8-mer CGTTAATC], for which the binding signal in data set [1] is 10.9; in data set [2], 9.39; in data set [3], 8.63; in data set [4], 9.54.

In the case of GGGCCCCC [8-mer GGGCCCCC], the binding signal in data set [1] was 7.84; in data set [2], 7.68; in data set [3] it was 7.48; in data set [4], 7.68.

As to CCGCGCCG [8-mer CCGCGCCG], the binding signal in data set [1] is 8.08; in data set [2] it was 7.98; in data set [3], 7.85; in data set [4] it was 7.94.

Turning to GCAGCGAC [8-mer GCAGCGAC], the binding signal in data set [1] was 8.14; in data set [2] it was 8.03; in data set [3], 7.99; in data set [4] it was 8.06.

Take ACTAATCC [8-mer ACTAATCC]: the binding signal in data set [1] was 11.7; in data set [2] it was 9.84; in data set [3], 8.55; in data set [4], 10.4.

CCGGCCAA [8-mer CCGGCCAA]: the binding signal in data set [1] is 8.31; in data set [2], 8.11; in data set [3], 8.06; in data set [4], 8.12.

As to TCACTTAA [8-mer TCACTTAA], the binding signal in data set [1] is 9.85; in data set [2] it was 8.91; in data set [3] it was 8.75; in data set [4] it was 8.73.

Turning to CGAGATTA [8-mer CGAGATTA], the binding signal in data set [1] is 11; in data set [2], 9.18; in data set [3], 8.66; in data set [4], 9.44.

As to GGCTTAAC [8-mer GGCTTAAC], the binding signal in data set [1] was 11; in data set [2] it was 9.09; in data set [3] it was 8.52; in data set [4] it was 9.41.

With GCGCAGAC [8-mer GCGCAGAC], the binding signal in data set [1] was 8.31; in data set [2] it was 8.21; in data set [3] it was 8.18; in data set [4] it was 8.15.

Take CAGATTAA [8-mer CAGATTAA]: the binding signal in data set [1] was 11; in data set [2], 9.31; in data set [3], 8.59; in data set [4], 9.48.

For AGGGATTA [8-mer AGGGATTA], the binding signal in data set [1] was 11.9; in data set [2], 9.98; in data set [3] it was 8.55; in data set [4], 10.7.

In the case of GCCCTCAC [8-mer GCCCTCAC], the binding signal in data set [1] is 8.3; in data set [2] it was 8.17; in data set [3], 8.1; in data set [4] it was 8.13.
